We go through 70 variants from a collection of fitness landscapes (doi:10.1016/j.celrep.2020.107928).

Over roughly 81,000 sequences, “one-hybrid fitness for binding NBS DNA” has its median near -0.1; the highest 2% begin near 0.36. This is one part of the list.

B1: Caulobacter ParB omega fusion; a variant is named by its letters at X, in order, B8GW30 (parent)
chain: MESVVVGEPGMSEGRRGLGRGLSALLGEVDAAPAQAPGEQLGGSREAPIEILQRNPDQPRRTFREEDLEDLSNSIREKGVLQPILVRPSPDTAGEYQIVAGERAWRAAQRAGLKTVPIMVRELDDLAVLEIGIIENVQRADLNVLEEALSYKVLMEKFERTQENIAQTIGKSXSHVANXMRLLXLPDEVQSYLVSGELTAXHARAIAAAADPVALAKQIIEGGLSVRETEALARKAPNLSAGKSKGGRPPRVKDTDTQALESDLSSVLGLDVSIDHRGSTGTLTITYATLEQLDDLCNRLTRGI

Variants of B1 are the subject of this test. Nature of the test: one-hybrid fitness for binding NBS DNA (the Noc-binding site; scaled: cognate 1, non-cognate 0); higher = stronger binding. To be noted: with NBS DNA site. In a few lines: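 In E. coli USO, a HIS3 reporter with its site placed 19 bp from the promoter was used to select Caulobacter ParB variants randomised at four specificity codons. Growth lasted 48 hours at 37°C on histidine-free M9 containing 0.1 mM IPTG and 5 mM 3-AT. Fitness was taken as the log change in variant-to-wild-type read ratio from Illumina sequencing of pre- and post-selection plasmids, rescaled between the non-cognate and cognate sites.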
Turning to NTGS, the “one-hybrid fitness for binding NBS DNA” value is not above 0.2. ERLR: the “one-hybrid fitness for binding NBS DNA” value is not above 0.2. With VTDG the figure was not above 0.2; with QKYW, not above 0.2. With ILLS the figure was not above 0.2.

GQVI: the “one-hybrid fitness for binding NBS DNA” value is not above 0.2.

Turning to RQDG, the “one-hybrid fitness for binding NBS DNA” value is not above 0.2. Next, RNYY: not above 0.2; MKMC: not above 0.2; LEDT: not above 0.2. Next, IRVC: not above 0.2; KASW: not above 0.2. Next, WNEY: not above 0.2; TEAG: not above 0.2.

In the case of PRCC, the “one-hybrid fitness for binding NBS DNA” value was not above 0.2. Consider EETG, for which the “one-hybrid fitness for binding NBS DNA” value is not above 0.2. Next, TAVI: not above 0.2; TAWV: not above 0.2; IKST: not above 0.2. Next, VHFP: not above 0.2; DLKC: not above 0.2. Next, THDT: not above 0.2. As to YAFT, the “one-hybrid fitness for binding NBS DNA” value was not above 0.2. Next, IRYN: not above 0.2; FKRT: not above 0.2. Next, NQYI: not above 0.2; KAGS: not above 0.2; ARGE: not above 0.2.

As for NVSY, the “one-hybrid fitness for binding NBS DNA” value was not above 0.2. Next, PFSG: not above 0.2. Next, HHTF: not above 0.2; VFAI: not above 0.2; TEET: not above 0.2.

Turning to LGSM, the “one-hybrid fitness for binding NBS DNA” value is not above 0.2. With DFSC the figure was not above 0.2; with WHLI, not above 0.2; with RWCS, not above 0.2. Next, GYNR: not above 0.2. With YFNF the figure was not above 0.2; with HIRA, not above 0.2; with WSRV, not above 0.2. Regarding TYDY, the “one-hybrid fitness for binding NBS DNA” value was not above 0.2.

Take PRNF: the “one-hybrid fitness for binding NBS DNA” value is not above 0.2. With LYWC the figure was not above 0.2.

Turning to CQYV, the “one-hybrid fitness for binding NBS DNA” value is not above 0.2. In the case of PGFT, the “one-hybrid fitness for binding NBS DNA” value was not above 0.2. Consider PLIG, for which the “one-hybrid fitness for binding NBS DNA” value is not above 0.2. Consider RFIL, for which the “one-hybrid fitness for binding NBS DNA” value is not above 0.2. Next, SSNN: not above 0.2. With TNTG the figure was not above 0.2. With LPSL the figure was not above 0.2; with IMAT, not above 0.2.

Turning to RPAC, the “one-hybrid fitness for binding NBS DNA” value was not above 0.2. With PVYN the figure was not above 0.2. With QEVL the figure was not above 0.2; with EPKV, not above 0.2; with VDQD, not above 0.2.

On to DGMY, for which the “one-hybrid fitness for binding NBS DNA” value is not above 0.2. With DENR the figure was not above 0.2.

As for LCKE, the “one-hybrid fitness for binding NBS DNA” value was not above 0.2. With LIGE the figure was not above 0.2. Next, FANS: not above 0.2. Next, TTPE: not above 0.2; KHMR: not above 0.2. Regarding HMMR, the “one-hybrid fitness for binding NBS DNA” value is not above 0.2. With QLNM the figure was not above 0.2. Next, LVYR: not above 0.2; AFGS: not above 0.2. With RCFA the figure was not above 0.2; with VTHY, not above 0.2.
